# Experimental data: the BET-seq Pho4 binding data (Le et al. 2018)
# The list shows a part of the results. Values were computed here from the reads of four pooled replicates and scatter widely.
# Biological target: T1, Pho4 (S. cerevisiae) (UniProt P07270)
# T1 sequence: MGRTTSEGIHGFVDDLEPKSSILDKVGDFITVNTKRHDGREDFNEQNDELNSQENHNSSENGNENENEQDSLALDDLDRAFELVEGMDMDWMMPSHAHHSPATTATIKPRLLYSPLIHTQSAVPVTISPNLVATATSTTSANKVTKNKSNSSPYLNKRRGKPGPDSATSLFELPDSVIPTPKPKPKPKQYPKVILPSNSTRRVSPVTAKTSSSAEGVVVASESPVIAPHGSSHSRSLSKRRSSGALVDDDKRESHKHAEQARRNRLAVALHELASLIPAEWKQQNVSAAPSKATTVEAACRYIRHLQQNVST
# Assay: relative binding free energy (BET-seq); higher = weaker binding
# Settings: reference: library average
row,Sequence,relative binding free energy [kcal/mol]
1,AGGGGCACGTGGAACT,-0.06
2,CGAGTCACGTGTGGTA,0.02
3,TAGGTCACGTGCGGTT,0.1
4,TGGTCCACGTGGGGGC,-0.19
5,ATCTTCACGTGGTGAT,0.21
6,GGGCTCACGTGGATGG,0.35
7,TTAGGCACGTGAAATT,0.18
8,AATATCACGTGTTTAT,0.26
9,AAAGGCACGTGGGTCG,-0.16
10,GTTAGCACGTGAGTAG,0.29
11,TTGGTCACGTGTCTGC,0.18
12,ATAATCACGTGCGGTG,0.2
13,TGAGGCACGTGTGTAA,0.06
14,GAAAACACGTGTTGGT,0.04
15,GTGAACACGTGTGGTG,-0.03
16,GTAGTCACGTGTCTTA,0.22
17,CGGTGCACGTGTGTGT,0.03
18,GGGCACACGTGGTTGG,-0.04
19,ACGATCACGTGGGTGG,-0.02
20,GGAGGCACGTGGGCTC,-0.21
21,TTTTGCACGTGGGCAT,-0.2

row,Sequence,relative binding free energy [kcal/mol]
1,TTGTACACGTGCATGG,0.07
2,CCTAGCACGTGGGTGG,-0.19
3,TATATCACGTGGTGTT,0.04
4,AGTGACACGTGCGTGT,-0.16
5,TGGTTCACGTGTTTGT,0.18
6,GGGGGCACGTGCTGAG,-0.21
7,CGCGTCACGTGTGGCG,0.11
8,GGTGGCACGTGAACTT,0.22
9,TAGGACACGTGGTGGG,0.02
10,AATATCACGTGGTATG,0.05
11,GTATACACGTGTTATT,0.1
12,GTGCGCACGTGCGTTG,-0.01
13,TCGGTCACGTGGCTTT,0.13
14,GGTAGCACGTGGGACT,-0.11
15,AGGGTCACGTGAGCTA,0.25
16,TTAGTCACGTGTCGAG,0.1
17,TTTAACACGTGTGACG,0.1
18,AGAGGCACGTGAGAGT,0.03
19,AGTAGCACGTGAGCTG,0.07
20,GAGAACACGTGGTGTT,0
21,TTATGCACGTGTGACG,-0.02

row,Sequence,relative binding free energy [kcal/mol]
1,GGTTTCACGTGCTTAA,0.24
2,GTAGTCACGTGTATTG,0.1
3,TTAATCACGTGTGATA,0.04
4,AGTTGCACGTGCATAG,-0.11
5,GTGAGCACGTGGGTGA,-0.2
6,GGGTTCACGTGTTACT,0.34
7,CGGGCCACGTGAGGTG,0.05
8,TATAGCACGTGTGCTT,-0.15
9,GTGGTCACGTGTCACG,0.18
10,TGGAGCACGTGACAGT,0.05
11,TTTGGCACGTGAGTAG,0.21
12,TTAGACACGTGTGTTC,0.1
13,CAATTCACGTGGTAGG,0.18
14,CCTTGCACGTGGTAGT,-0.06
15,GAGAACACGTGGAGGG,0.11
16,GTCGACACGTGGGGGG,-0.1
17,ATAGTCACGTGGCGGT,-0.03
18,GGTGGCACGTGTGGGC,0.07
19,AGGGTCACGTGGGTTT,0
20,GTGTTCACGTGTATTC,0.31
21,CGGATCACGTGGATTG,0.18
